PubChem BioAssay AID485294 (National Center for Advancing Translational Sciences (NCATS), 2010)
The whole screen tested about 370,000 compounds, of which about 150 (0.041%) were called active. This list was built around the results that the source calls inconclusive (neither active nor inactive); the mix of calls is not that of the screen. Calls follow the shape of the dose curve; as a rule, active = well fitted inhibition curve with a large enough effect; inconclusive = small, poorly fitted or top-dose-only effect; inactive = flat fitted curve, though single readings scatter. No potency is given beside an inconclusive call; the fits are too rough.

target: Beta-lactamase (Escherichia coli (strain K12)) (UniProt P00811); assay: qHTS Inhibitors of AmpC Beta-Lactamase (assay with detergent); details: AmpC hydrolysis of nitrocefin, absorbance 480 nm, 0.01% Triton; series mostly up to 114 µM; also: nearly all actives have a fitted effect of over 25% in size
Outline: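 20 mM phosphate pH 7.0 + 0.01% (detergent screen) or 0.0001% Triton X-100; 5.3 nM AmpC reagent; cpd preinc 15 min RT; nitrocefin (800 uM stock) to start; A480 q20 s × 4 min; Activity was normalised to no-enzyme and no-compound control wells.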
Potency is read from the fitted curve at half-maximal effect; tags tell the direction and shape of the fitted curve.

Sequence of UniProt P00811 (P00811 whole entry, looked up): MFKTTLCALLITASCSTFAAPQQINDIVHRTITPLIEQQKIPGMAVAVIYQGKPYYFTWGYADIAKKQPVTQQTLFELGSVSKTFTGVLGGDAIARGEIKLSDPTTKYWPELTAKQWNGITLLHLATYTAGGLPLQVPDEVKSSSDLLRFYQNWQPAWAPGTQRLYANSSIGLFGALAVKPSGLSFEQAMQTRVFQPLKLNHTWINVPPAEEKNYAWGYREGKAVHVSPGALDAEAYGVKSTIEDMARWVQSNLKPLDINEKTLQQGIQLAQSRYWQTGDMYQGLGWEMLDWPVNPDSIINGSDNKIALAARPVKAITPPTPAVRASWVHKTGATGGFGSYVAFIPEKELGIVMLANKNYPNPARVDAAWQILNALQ

Compound	Potency
CC(/C=C1\SC(=S)N(NS(=O)(=O)c2ccc(C)cc2)C1=O)=C\c1ccccc1	inactive
CN(C)N(C(=O)c1cc(-c2cccs2)nn1-c1ccccc1)C1CCS(=O)(=O)C1 (stereo not drawn)	inconclusive [inhibitor, partial curve, poor fit]
COC(=O)c1ccccc1NC(=O)c1cc(CN2CCCC2)on1	inactive
CCOC(=O)c1cnc(SCC(=O)N2CCN(c3ccccc3)CC2)nc1N	inconclusive [inhibitor, full curve, poor fit]
CC1C(=O)N2CCCc3cc(NC(=O)C(=O)NCCCc4ccccc4)cc1c32 (stereo not drawn)	inactive
O=C(Nc1sc2c(c1C(=O)Nc1cccc(Cl)c1)CCCC2)c1cccs1	inactive
COc1cc([N+](=O)[O-])cc(/C=N/NC(=O)C(C)Nc2ccccc2C)c1O (stereo not drawn)	inconclusive [inhibitor, full curve, poor fit]
Cc1ccc(NC(=O)CSc2nc(=O)n(Cc3ccco3)c3c2CCC3)cc1F	inactive
Cc1ccc(N2C(=O)c3ccccc3C2=O)cc1C	inconclusive [inhibitor, full curve]
COC(=O)c1ccc(C[n+]2ccccc2)cc1	inconclusive [inhibitor, full curve]
Cn1c(-c2ccc(Br)cc2)cnc1NCc1cccnc1	inactive
CCOC(=O)CNc1ccc2c(c1)OCO2	inconclusive [inhibitor, partial curve]
COc1ccc(-c2nc(CN3CCC(C(=O)NCCc4ccccc4)CC3)c(C)o2)cc1OC	inconclusive [inhibitor, single point]
Cc1c(Cl)ccc2c(C(=O)Nc3cc(C(C)(C)C)on3)cc(-c3ccccn3)nc12	inconclusive [inhibitor, full curve, poor fit]
Cn1c(O)c(C=NC(CC(N)=O)C(=O)O)c(=O)n(C)c1=O (stereo not drawn)	inconclusive [inhibitor, partial curve]
O=C(Oc1ccc2ccccc2c1Cl)N1CCCCCC1	inconclusive [inhibitor, single point]
c1ccc(CN2CCN(c3cnc4ccccc4n3)CC2)cc1	inactive
Cc1cc(C(=O)CCC(=O)N(C)CC(=O)Nc2c(Cl)cccc2Cl)c(C)s1	inconclusive [inhibitor, full curve, poor fit]
CN1CCN(c2ccc(NC(=O)Oc3ccccc3)cc2)CC1	inactive
O=C(NCCNC(=O)c1ccc(-c2ccc(Cl)c(Cl)c2)o1)c1cnccn1	inconclusive [inhibitor, single point]
COc1cccc(CNC(=O)COC(=O)C2CCN(c3ccc(C(F)(F)F)cn3)CC2)c1	inconclusive [inhibitor, full curve, poor fit]
Cc1cc(Cl)ccc1NC(=S)NCc1cccs1	inconclusive [inhibitor, full curve, poor fit]
COc1ccc(CSCC(=O)N/N=C/c2ccccc2OCc2ccccc2)cc1	inconclusive [inhibitor, full curve, poor fit]

Compound	Potency
CCC(C)NC(=O)C1CCN(C(=O)c2ccccc2)CC1 (stereo not drawn)	inconclusive [inhibitor, full curve]
CC(=O)N1CCc2cc(C(=O)CN3CCN(c4ccccc4F)CC3)ccc21	inconclusive [inhibitor, full curve, poor fit]
O=C(O)CNC(=O)c1ccc(NC(=O)/C(=C/c2ccccc2)NC(=O)c2ccco2)cc1	inconclusive [inhibitor, full curve, poor fit]
CCC(=O)N1c2ccccc2NC2=C(C(=O)CCC2)C1c1ccccc1 (stereo not drawn)	inconclusive [inhibitor, partial curve]
COc1cccc(CN2CCC(N(CCc3ccccc3)Cc3ccccc3)CC2)c1OC	inactive
CCOC(=O)c1c(NC(=O)Cn2nnc(-c3ccccc3Cl)n2)sc(C)c1C	inconclusive [inhibitor, full curve, poor fit]
CSc1nc2ccsc2c(=O)n1-c1ccccn1	inactive
Cc1cc(C)cc(N(C(C)C(=O)NCCC2=CCCCC2)S(C)(=O)=O)c1 (stereo not drawn)	inconclusive [inhibitor, full curve, poor fit]
Cc1nc(SCc2ccccc2F)c2oc3ccccc3c2n1	inactive
CCOc1ccccc1N1C(=O)c2cccnc2C1=O	inconclusive [inhibitor, full curve, poor fit]
CCN(CC(=O)Nc1ccc(OC)cc1)C(=O)CSCc1ccc(C)cc1	inconclusive [inhibitor, full curve, poor fit]
Cc1noc(/C=C/N(C)C)c1S(=O)(=O)N1CCc2ccccc21	inconclusive [inhibitor, full curve]
CCc1ccc(CNCc2ccc(F)cc2)cc1	inconclusive [inhibitor, full curve, poor fit]
O=C(NC1=NCCS1)c1cccc(N2C(=O)c3ccccc3C2=O)c1	inactive
COc1ccc(N(C(=O)CCl)C(C(=O)NC2CCCCC2)c2cccnc2)cc1 (stereo not drawn)	inactive
COc1ccccc1N1CCN(C(CNC(=O)C(=O)NCc2ccc(F)cc2)c2cccnc2)CC1 (stereo not drawn)	inactive
CCS(=O)(=O)c1ncc(Cl)c(C(=O)Nc2c(C(=O)Nc3cccc(C)c3)oc3ccccc23)n1	inactive
CCOc1ccc(CN(CCO)CCO)cc1C(=O)OC	inconclusive [inhibitor, single point]
COC(=O)C1=NN(c2ccc(Cl)cc2)C2C(=O)N(c3ccccc3OC)C(=O)C12 (stereo not drawn)	inconclusive [inhibitor, single point]
Clc1nnc2ccc(-c3ccccc3)nn12	inconclusive [inhibitor, full curve, poor fit]
CCC1(c2ccc(F)cc2)NC(=O)N(CC(=O)N(C)C2CCS(=O)(=O)C2)C1=O (stereo not drawn)	inconclusive [inhibitor, full curve, poor fit]
Cc1cccc(COCC(Cc2ccccc2)N2CCN(C(=O)c3ccc(Cl)c(Cl)c3)CCC2=O)c1 (stereo not drawn)	inconclusive [inhibitor, full curve, poor fit]
CCOC(=O)C1=C(C)NC(C)=C(C(=O)OC)C1c1cccc([N+](=O)[O-])c1 (stereo not drawn)	inactive

Compound	Potency
C[C@H](NS(=O)(=O)c1ccc(Cl)cc1)C(=O)OCC(=O)c1ccc[nH]1	inactive
Cc1ccc(S(=O)(=O)NCC(=O)N(CC(=O)NCC2CCCO2)c2cccc(F)c2)cc1 (stereo not drawn)	inconclusive [inhibitor, full curve, poor fit]
N=c1c(S(=O)(=O)c2ccccc2)cc2c(=O)n3ccccc3nc2n1C1CCCC1	inconclusive [inhibitor, full curve]
COc1ccc(N2CCN(C(=O)NCc3ccc(OC)c(Cl)c3)CC2)cc1	inconclusive [inhibitor, full curve, poor fit]
CC1(C)CC(=O)C2=C(C1)OC(N)=C(C#N)C21CCN(Cc2ccccc2)CC1	inconclusive [inhibitor, full curve, poor fit]
Nc1cc(OC(=O)c2c(F)cccc2Cl)nn1S(=O)(=O)c1ccccc1	inactive
Cc1cc(-n2c(C)cc(C(=O)CN3C(=O)NC4(CCCCCC4)C3=O)c2C)no1	inconclusive [inhibitor, full curve, poor fit]
COc1ccc2c(c1)c1c(c(=O)n(-c3ccccc3C)c(=O)n1C)n2C	inactive
CCn1c(SCC(=O)c2ccc(Br)cc2)nnc1C(C)NC(=O)Cc1ccc(OC)cc1 (stereo not drawn)	inconclusive [inhibitor, single point]
COC(=O)c1sc2ccccc2c1NC(=O)c1ccc(S(=O)(=O)N2CCCCC2)cc1	inconclusive [inhibitor, full curve, poor fit]
Cc1ccc(C(=O)CSc2nc3cccnc3n2C)cc1	inconclusive [inhibitor, single point]
Cc1cc2cc(CNC(=O)c3ccc(Br)o3)ccc2n1C	inactive
CCCc1cc(C(=O)N2CCC(n3nccc3NC(=O)c3ccc(OC)cc3)CC2)no1	inactive
COc1ccc(CNC(=O)Cn2cc3c(n2)CCCCC3)cc1	inactive
CC(=O)OCC1=C(C(=O)O)N2C(=O)C(NC(=O)C(C)Cn3cc(Cl)cn3)C2SC1 (stereo not drawn)	inconclusive [inhibitor, single point]
COc1ccc(NC(=O)CN2CCCCC2)cc1	inconclusive [inhibitor, partial curve, poor fit]
O=C(/C=C/c1cccc([N+](=O)[O-])c1)NCCSCc1c(Cl)cccc1Cl	inconclusive [inhibitor, partial curve, poor fit]
CCc1ccc(Cn2nnc(C(=O)Nc3ccc(OC)cc3OC)c2N)cc1	inconclusive [inhibitor, full curve]
CCN(CC)c1ccc(C(=O)NNC(=O)CNC(=O)c2cccs2)cc1	inconclusive [inhibitor, full curve, poor fit]
CCCCSc1nnc(-c2ccccc2NC(C)=O)c(=O)[nH]1	inactive
Cc1ccccc1NC(=O)CC1(c2ccc(N(C)C)cc2)C(=O)c2ccccc2C1=O	inconclusive [inhibitor, full curve]
CCCOc1ccc(CNC(=O)CCCn2nc(C)c3sc4ccccc4c3c2=O)cc1	inactive
